Measurements as given in the supplement of paper PMC12632987.
In all, about 4,500 sequences were measured (“median log2 fold change of GCK-ALFA target abundance (FLAG IP / Myc IP barcode read proportion)”: median about 0.078, lowest 2% from about -0.6 on). This is one part of the list.

B1: GBRAP_52_6295 (protein)
chain: MEEEAKAIADAIVEAAKAGDEETARALLREAAETKSLEFLRMVAEVLAEKAANSDEETRDIIFKVMEMFEEVMIEAGIPEEEAEDWLYRVAKAMYEAELK
B2: GBRAP_128_3259 (protein)
chain: MNEEIEKKAREFVEKLKNSDKEEKKKIAEEFAEWLASVSDEEAEQAIDVVESRLDELSAEDLEILADVLRKHLPKLSPEKARLAADLEVAALNEAEEKEE
B3: GBRAP_137_3666 (protein)
chain: MLEAEIEVENGLAFARLTYKGKKEEAEKLAEVIEDVAGKIPGIAVSVKIEEDGTLEADLFGTLEEVMKALKEIAKEMNIDVKVTLKDLETGEVREETIKA
B4: GBRAP_52_6051 (protein)
chain: MRERLAALAREALAAVRAGDLERARALLREVFETLSDEELELFVEELARLAREARPEDFDAVARLVELAEEEALEAGRPEEFADLLAARVYAALYEAEQR
B5: GBRAP_53_6422 (protein)
chain: KEAEIAALKAQIRELTEQATKAGPAERAALAAQIGAAFAELKAAGMPDEELTELAKEVAEKLKAAGADPADLVALAKAMEALGLEEATAEIGEVIVEDLE
B6: GBRAP_52_6197 (protein)
chain: MRERLRALAQEVVELVKAGREEEAEALLREAAETLSLEELRALGEEFAALAREAAPEDFDAVFRAAELFAEVLEEEGIPEVLADDLLARVAAALYEREQA
B7: GBRAP_166_4891 (protein)
chain: STAEAIAQIRALAAATIARIASLTDEELLASFIDMVEIVEAAGATPELRAALAAEFARIVAAAVAAGRDWARVESLALAAVGDDEELLDAVEAALAAARA
B8: GBRAP_52_6156 (protein)
chain: AEARAQAYADELIALVKAGDEAGIEALLREIAATLSEEEITLMMDIVAEQVATLSPEQQERVVEAAIRLEDILIEAGHDENLASYQTARVAGAAYKALQA
B9: GBRAP_184_5332 (protein)
chain: KTLEVHIENLPIEEIIKKVEEAAKKAAEEGADLLISIDASGYSIEEIIELIKKIGEIAKKYGVKNVTLGIDKEVNEEEADKLIEEADKYGIRLVLPLKDE
B10: GBRAP_160_4557 (protein)
chain: SEEKKKAIEEIRELLEEAIEEMKTLSPAEIVTLARGTLGEALAIVFENDAFTDEEEDVAGEKADAAEAALRAAAAASPEELVALAREKAEELVEALEELE
B11: GBRAP_11_2632 (protein)
chain: KKETLKKAAELAKKAKEVLKQLKEKGVDDEELLKKLEELLEELEKLVKKIGDKALENDVKVAKELLEEAKADPENKEFYVNLLLAQIEIIEAELEEKIEE
B12: GBRAP_80_6831 (protein)
chain: MEERLEAAIEAIREIDPEIAEVVEEIVRLAREMGVPLERLARMAEAVLELAKKDKEKALELVRRALEEVRAAAAEGNAEEVAAILAELESDALLAVEELE
B13: GBRAP_166_4954 (protein)
chain: NLEEVIKETKEYIDELAEKMKTANEEEKLELYAEMAEKIQEAKDAGVSNEDILELIKYAMKKVKEVGGSVDQFMGAIDMFVDLSEEELDIVYAEADKVKA
B14: GBRAP_128_3480 (protein)
chain: STEEAVEETKKLMEEIKNSSLEEVKELSKKLVELLNSLNKEEREAVTEVIIEMLPELSVEKLEILADVFREKRPELDEFTAIEVADIEIEALMEALEKEE
B15: GBRAP_128_3572 (protein)
chain: SAEETLERARELIERIITSDLEEARRAAEELFRLIGESDAETRERIEELVLAALPQLTREKLEVLADVARRLRPELDPLGAEVAADIEVAALNEAEELEE
B16: GBRAP_80_6763 (protein)
chain: MMEELEEALEELSELLPELAEELRATVEALLELGVPVEDLLRLLKALVELAKLDKEKAEAILREFIAEVNEAIARGDLEEARALVIDAESDALLEVEELE
B17: GBRAP_11_2734 (protein)
chain: KKEKLEEVKELAEKAAEAAEELLKRGVDDEELRKKIEELLKELREKVEELEDEFLKELVEIAEEEFRESLADPENAEEYLERARAALRVLAGQVQLLIDE
B18: GBRAP_125_3093 (protein)
chain: HMEEILAALRRLALALGYSEEDAELLAELAANSSVRQTLYALFEAEGYEEVAELVEKLTEEQAEAVLLRLAAWLDEHPDASKEEVVEQAKALIEEALAAA
B19: GBRAP_53_6388 (protein)
chain: REEEIERLVREYRELLERIREAGPEEAVRLGEEARELLVELARLGADDETLERLAREFAELVEEHPELEPLALELAKELAALGREEAAGILAERLVEELE
B20: GBRAP_139_3735 (protein)
chain: AEAEAKIAEAVALTRRSVATGGAYVAELAALLASMDEETAEEALEAMAEVLKAEDFDTVEALFDALIDTLLTEHDDEDLATMAEAARNRALAEVAVREEA
B21: GBRAP_186_5387 (protein)
chain: EEEAEKELDKVIEEAEAKGYRVIVAYLENKSVEETKAAIRREAEAVAALAKETGKKYALIVVVKTKKEDIEEIKAFADELNKEYLAKTGVEVYVVAEDSE
B22: GBRAP_53_6423 (protein)
chain: MEERIERLKEEIRRATEEATKADAARRAELVKRIGELFKELKEAGAPEEELEELAREVAEKLAAAGAPVSDLVALANTMAELGLEEGTAAIGEVIVEDLE
B23: GBRAP_83_6996 (protein)
chain: KEKVAVAAHGDHLIEAAEIAIELTKEEGKEVVLEFITTPEDREKVLEAVKLLAEAGIETEIIVIGLNMTEEEAEELKKEMEEIAKAAGVNIKIEVYLEEL
B24: GBRAP_160_3979 (protein)
chain: SAEIEALKKEIEEIFEEAKEMIEGESFEERLAIIAVAVGEIILLLEENPLVSDEAVEKVAEIGDELIEYLKENPDLTEEEIKEKIEEALEKIKKVIEEDA
B25: GBRAP_195_5415 (protein)
chain: MKVATVVVTIEASDTPEEIVKKILEKVKEAVAKGAKTVVVVVKRDPKVPEETVLKAVEEVKKKLPDVNITVEVFDDPSLTDEQLQKIGEALAATIEEELE
B26: GBRAP_160_4664 (protein)
chain: SEEIEKLLEEIRELLLETLDWTKDLDPASREALLRAAVGDVLQLLFENPLVTDEVEDYAEEVLEEMREYVLANPDLTDEEREALVDEVVDKIREKILEES
B27: GBRAP_128_3378 (protein)
chain: INEERLKEIRELAEAAIKSDVETTAELTKKIVELMGKLSPEEREEAAEIVISLLPKFSEEKLEAIADTIREQRPKLDPLGQLLANEVEVEALNEAEELEE
B28: GBRAP_160_4186 (protein)
chain: SEEIEKLIKEIKEIAEEAIKLIEGQSHEERIVIVAGALGQIILLLSSSPIISDETVDKVAELADETIATLKANPNLTEEEIKELIKETTEKIIEIIKKSH
B29: GBRAP_128_3592 (protein)
chain: SMEEVKERTRKLLEEMKTADAATRKAIADELAEEFLTLTPEEQEAMAETIEELLPELSAEDLDILADAFRAAMPKADPEKANLLADIAVAALNEAVEKEE

target: GABARAP, O95166; test: median log2 fold change of GCK-ALFA target abundance (FLAG IP / Myc IP barcode read proportion) (log2 ratio); each designed protein is fused to an ALFA-tag nanobody in HEK293 cells to bring the named protein to FLAG-tagged glucokinase (GCK); Myc marks an untargeted standard; higher = target protein stabilised (more abundant); conditions: target protein: 3xFLAG-MCP-GCK-ALFA reporter; HEK293 landing pad (RPLP)
Outline: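 Binders fused to an ALFA nanobody were recombined as a library into HEK293 landing-pad cells, which were induced with 2 μg mL^−1 doxycycline and then transfected to express a FLAG-tagged target and a Myc-tagged standard. After 48 h, circular RNA barcodes recovered by anti-FLAG and anti-Myc immunoprecipitation of lysates were reverse transcribed, amplified and sequenced. Each binder's target abundance is the median log2 ratio of FLAG to Myc barcode read proportions, from barcodes present at ≥10^−7 in both replicates, binders carrying ≥3 barcodes per replicate, a 10^−6 pseudocount and pooled replicates.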

Sequence of GABARAP, O95166 (O95166 whole entry, the tested form may be a part): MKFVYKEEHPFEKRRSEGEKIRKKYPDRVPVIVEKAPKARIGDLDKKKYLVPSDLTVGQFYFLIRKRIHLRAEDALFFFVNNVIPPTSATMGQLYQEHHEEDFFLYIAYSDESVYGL

| Binder | median log2 fold change |
| --- | --- |
| B1 | 0.141 |
| B2 | 0.31 |
| B3 | 0.331 |
| B4 | 0.0249 |
| B5 | 0.285 |
| B6 | 0.0944 |
| B7 | 0.118 |
| B8 | -0.134 |
| B9 | -0.598 |
| B10 | 0.212 |
| B11 | 0.00505 |
| B12 | 0.2 |
| B13 | 0.135 |
| B14 | -0.289 |
| B15 | 0.225 |
| B16 | 0.0537 |
| B17 | 0.112 |
| B18 | 0.0462 |
| B19 | 0.222 |
| B20 | 0.139 |
| B21 | 0.214 |
| B22 | 0.379 |
| B23 | -0.155 |
| B24 | -0.425 |
| B25 | 0.229 |
| B26 | -0.406 |
| B27 | 0.172 |
| B28 | 0.231 |
| B29 | 0.0657 |
